From the supplement of paper PMC3334620
Whole data set: some 33,000 sequences, median “E-score (-0.5 to 0.5)” near -0.01, cut for the highest 2% near 0.26. The list shows a part of the results.

The sequences below were run against Ste12 (UniProt P13574) (assay: PBM E-score (8-mer binding enrichment) (E-score (-0.5 to 0.5)); higher = stronger / more preferred TF binding; most listed sequences are background and not binding sites). Details: protein concentration: 200 nM; construct: GST-DNA-binding domain.
In short: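 Using PURExpress in vitro transcription/translation, GST-tagged yeast transcription factors were made in full-length or DNA-binding-domain form. These were applied at about 100-200 nM to double-stranded universal all-10-mer Agilent arrays, and bound protein was detected with fluorescent anti-GST. Scans were normalised with masliner before the Universal PBM Analysis Suite assigned E-scores to ungapped eight-base words pooled with their reverse complements.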

Sequence	PBM E-score
ACCCAATG	-0.0408
ACGGCATC	-0.184
AACTTCGT	-0.0227
CCCACCCG	0.358
CTCCGGTA	-0.177
AAAGTCTG	0.0462
CACTGACA	0.0228
CTGTTCAC	-0.0139
CATCAATG	0.121
TCAGCTCA	-0.026
ACACGGCA	-0.0616
CTCCGCTC	0.0335
ATTACCCG	0.0371
ATGCTTCC	0.118
GTTAGCGA	0.0451
AAGGAATC	0.00574
ACACCTGA	0.11
ACAGGCAG	0.0716
TCCAACCA	0.0768
ATCTAGGG	0.00231
ATCGTGCC	-0.0644
GACGTCTC	-0.0893
GAGTGAAA	0.204
AGCACACC	-0.247

Sequence	PBM E-score
AACCAAAC	0.0997
ACCAAAAA	0.27
ATTTAGGC	0.152
CAGATCTC	0.117
AGGCTCCC	-0.169
CTGGAGCC	-0.138
AATGGGGT	-0.0055
ATCCTAGG	0.0295
CCTACAGA	-0.0726
ACCCCGGT	-0.167
CGAGCACG	-0.0713
AGCGAGAT	0.119
ATCGCTTC	-0.0328
CTTAAGGC	0.00461
GCAAACCA	0.147
CGTAGTTC	-0.145
GGTTAAAC	0.0928
GCCGAGGC	0.177
ATTTGGGC	-0.0608
CTGAAAAG	0.0611
ATCCATGA	-0.125
CAGGACCA	-0.257
CCGTGGCC	-0.214
AGCCGAAG	-0.0604

Sequence	PBM E-score
GAACGTTC	-0.0161
GAGCGTAC	-0.257
ATTGCCAC	0.0227
AGCGATTA	0.0294
CCTTGCAC	-0.0181
CTGAGCAA	0.0139
GCCGCGTA	-0.0616
AGTAGGCC	-0.0528
AACTGGTC	-0.0307
AGAGGGTG	-0.0796
GTAGCTAA	0.073
CAGGCAGA	-0.121
CTAGCGGC	-0.19
CATGCTCA	-0.0961
AGCCTTCG	-0.235
CATGCCTC	-0.0916
AGATGATC	0.0121
GTCTGCGA	-0.165
AGTCGTCG	-0.139
TGCAAGCA	-0.0855
CGTCATTC	0.014
CTAAGTGC	-0.0598
CCATAGGG	-0.143
CGTGAAAG	0.0979

Sequence	PBM E-score
ACTGCCCA	-0.127
ACCAGCTA	-0.106
ATTATCCC	0.0652
ATGCGCAA	0.0108
GGTTATAA	0.167
CAACCACG	0.0204
CTGCAGGC	-0.118
GCTAAACA	-0.085
CTATGCCA	-0.173
AAAGGCGT	-0.0449
AACCAAGG	0.156
GCCTCAAA	0.0976
ATCGTGGA	0.119
GAAGCGAC	-0.196
AAGCCTAT	-0.0475
CGAGGATA	0.0389
GCAAGGCA	-0.138
AGAGTTGC	-0.1
GGAAACAC	0.225
ACGTGGCT	-0.118
CGGAGAGC	-0.0936
AGCTAAAT	-0.00982
